B1: Myeloid differentiation primary response protein MyD88 (Homo sapiens), Q99836 (parent)
chain: MAAGGPGAGSAAPVSSTSSLPLAALNMRVRRRLSLFLNVRTQVAADWTALAEEMDFEYLEIRQLETQADPTGRLLDAWQGRPGASVGRLLELLTKLGRDDVLLELGPSIEEDCQKYILKQQQEEAEKPLQVAAVDSSVPRTAELAGITTLDDPLGHMPERFDAFICYCPSDIQFVQEMIRQLEQTNYRLKLCVSDRDVLPGTCVWSIASELIEKRCRRMVVVVSDDYLQSKECDFQTKFALSLSPGAHQKRLIPIKYKAMKKEFPSILRFITVCDYTNPCTKSWFWTRLAKALSLP
partner: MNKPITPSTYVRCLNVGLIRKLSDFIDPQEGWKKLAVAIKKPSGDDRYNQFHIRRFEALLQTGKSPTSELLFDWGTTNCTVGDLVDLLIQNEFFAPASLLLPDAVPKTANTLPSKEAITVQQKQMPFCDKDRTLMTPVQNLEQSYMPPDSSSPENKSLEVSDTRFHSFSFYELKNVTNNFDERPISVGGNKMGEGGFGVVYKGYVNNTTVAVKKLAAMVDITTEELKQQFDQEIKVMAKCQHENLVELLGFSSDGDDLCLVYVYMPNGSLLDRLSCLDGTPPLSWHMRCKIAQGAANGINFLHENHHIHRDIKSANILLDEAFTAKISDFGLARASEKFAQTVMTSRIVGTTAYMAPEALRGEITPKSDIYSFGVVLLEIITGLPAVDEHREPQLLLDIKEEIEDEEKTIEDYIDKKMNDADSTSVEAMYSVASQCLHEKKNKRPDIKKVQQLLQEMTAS

Variants of: B1
Details: with irak4_human IRAK4, Q9NWZ3

Variant | effect of a mutation on the interaction
L93P | disrupting interaction strength
R196C | disrupting interaction strength

Source: IntAct's records for PubMed 25502805
